Reference: PubChem BioAssay AID602393 (Broad Institute, 2012)
Screen size: about 350,000 compounds; about 7,000 (2%) were called active. The shares of active, inactive and inconclusive entries below differ from those in the screen. Rule as the data show it: active = activation above about 40%; inconclusive = no clear call, values can overlap the other calls; inactive = below that.

test: raisers of Bmi1 knock-in reporter signal – mouse ES cells, Bmi1 luciferase knock-in, single point, esBAF inhibitor project, primary screen (AID 602393); conditions: 24 h, at 12.5 µM, active compounds read high, 100% = twice the neutral-well signal;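 also: 0% = median of the plate's neutral control wells and 100% = double that signal; a rise in the Bmi1 reporter signal indicates esBAF inhibition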

Reporter increase, inactive:
COc1cccc2oc3cc(C#CC4(O)CCCCC4)ccc3c(=O)c12 -6.81%
O=C(C[C@H]1C=C[C@H](NC(=O)c2ccc(F)cc2)[C@@H](CO)O1)NCCc1ccccc1 6.33%
C[C@H](CO)N1C[C@H](C)[C@@H](CN(C)C)OCCCC[C@H](C)Oc2ccc(NC(=O)Nc3ccc(F)cc3)cc2C1=O 1.22%
C=C(C)C(=O)OC1(C(F)(F)F)Oc2cc(C)ccc2NC1=O (centres undefined) -1.84%
COc1cccc(CNC(=O)[C@H]2[C@H](CO)[C@H]3Cn4c(ccc(-c5ccncc5)c4=O)[C@@H]2N3C(C)=O)c1 3.03%
CO[C@@H]1CN(C)C(=O)c2cc(NC(=O)c3cc(C)on3)ccc2OC[C@H](C)N(C(=O)C2CC2)C[C@H]1C -2.85%
COc1ccccc1N1CCN(C(=O)c2cc(-c3ccccc3)on2)CC1 9.8%
CCOC(=O)C1=C(CSc2nc(CC)c(C)cc2C#N)OC(N)=C(C#N)C1c1ccccc1 (centres undefined) 4.79%
O=C(Cc1ccccc1)N/N=C/c1ccc(OC(=O)/C=C\c2ccco2)cc1 -0.616%
OCCNc1nc2ccccc2nc1NCCO -6.72%
O=C(NCc1cccs1)C1CCC(CNS(=O)(=O)c2cccs2)CC1 (centres undefined) 3.61%
CC(=O)c1ccc(NC(=O)CCc2c(C)nn(-c3ccc(N4CCOCC4)nn3)c2C)cc1 36.3%
CNC[C@@H]1Oc2cc(-c3ccc(OC)cc3)ccc2S(=O)(=O)N([C@@H](C)CO)C[C@H]1C 0.198%
O=C(NCCCn1ccnc1)c1cc(Br)c(Br)s1 -10.5%
Cc1ccccc1-n1c(-c2ccc3ccccc3n2)n[nH]c1=S 6.18%
CC(C)NC(=O)Nc1ccc2c(c1)C(=O)N([C@@H](C)CO)C[C@@H](C)[C@H](CN(C)Cc1ccc3c(c1)OCO3)OCCCC[C@H](C)O2 2.2%
C[C@@H]1CN([C@H](C)CO)C(=O)c2ccccc2-c2ccccc2CO[C@@H]1CN(C)C(=O)CCN(C)C -2.56%
CO[C@H]1CN(C)C(=O)c2ccc(NC(=O)Nc3ccccc3F)cc2OC[C@H](C)N(CC2CC2)C[C@H]1C 8.37%
O=c1c2ccccc2ccc2ccccc12 5.64%
CN(C)CC(=O)N1CCCCN2[C@@H](CO)[C@H](c3ccc(/C=C/c4ccccc4)cc3)[C@@H]2C1 -1.17%
COc1ccc(OCc2cc(C(=O)NC(C)Cc3ccccn3)no2)c(Cl)c1 (centres undefined) 29.1%
Cc1ccc(OCCn2nnc3ccccc32)cc1C 36.6%
C[C@H](NC(=O)C[C@@H]1CC[C@@H](NC(=O)C2CCOCC2)[C@H](CO)O1)c1ccccc1 -1.35%
CC1(Cc2cccc(F)c2)C(=O)Nc2ccc(-c3cccnc3)cc21 (centres undefined) -7.25%
C[C@@H]1CN([C@@H](C)CO)C(=O)c2cccc(NC(=O)C3CC3)c2O[C@H]1CN(C)C(=O)Nc1ccc2c(c1)OCO2 -1.46%
CO[C@H]1CN(C)C(=O)c2ccc(NS(=O)(=O)C3CCCCC3)cc2OC[C@@H](C)NC[C@H]1C -1.83%
CN1CCN(C(c2ccc(Cl)cc2)c2cc(Cl)c3cccnc3c2O)CC1 (centres undefined) -22.8%
CC1(Cc2ccc(OC(F)(F)F)cc2)C(=O)Nc2ccc(S(=O)(=O)NC3CCCCC3)cc21 (centres undefined) -11.4%
C[C@H](CO)N1C[C@H](C)[C@@H](CN(C)C)Oc2cc(C#Cc3ccncc3)ccc2S1(=O)=O 3.57%
C[C@H](CO)N1C[C@H](C)[C@H](CN(C)S(=O)(=O)c2cn(C)cn2)Oc2c(NC(=O)C3CCOCC3)cccc2C1=O -1.13%
Cc1cccc2c(=O)c(C(=O)NCc3ccc(F)cc3)c[nH]c12 -0.859%

Reporter increase, inconclusive:
COc1ccc(-c2nc3ccccc3c(=O)n2CCOc2c(C)cccc2C)cc1 48.6%
COc1ccc(/C=C/C(=O)O/N=C(\N)c2cccnc2)cc1OC 44.2%
COc1cccc(NC(=S)Nc2cc(C)cc(C)n2)c1 46%
c1csc(-c2nc(N3CCCCC3)no2)c1 86.7%
Clc1ccc(-c2nnc(-c3ccc4ccccc4c3)o2)cc1 41.5%
COc1ccccc1NC(=O)C(=O)/C=C(\O)c1ccccc1 40.5%
N/C(=N\OC(=O)c1ccco1)c1ccc(Cl)cc1 61.4%
Cc1ccc(-c2csc3nc(C)n(N)c(=O)c23)o1 42.1%
CCCCn1cnc2c(oc3ccccc32)c1=O 38.6%
c1csc(CNc2ccn3nc(-c4ccc(OCCN5CCOCC5)cc4)cc3n2)c1 47.9%
Cc1ccc(CC(=O)c2ccc(Cl)cc2)cc1 44.1%
CCOc1ccc(N(CC(=O)NCc2ccc(OC)cc2)S(C)(=O)=O)cc1 47.8%
Cc1nc2nc(NCc3cccs3)nn2c(C)c1Cl 47.3%
COc1c(C)cccc1C(=O)Nc1ccc(N2CCN(S(C)(=O)=O)CC2)cc1 40.4%
COCCn1c(C)cc(C(=O)CN2C(=O)NC3(CCCCCCC3)C2=O)c1C 52.7%
COc1ncccc1-c1nnn(-c2ccc(C)cc2)n1 40.2%
CC(C)c1ccc(OCc2ccc(C(=O)O)o2)cc1 22.1%
C/C(=N\NC(=O)c1ccccc1O)c1cccc(NC(=O)c2ccccc2)c1 41.6%
O=C(Nc1ccccc1)c1ccc2c(c1)OCO2 46.1%
O=C(NC(C(=O)c1ccccc1)n1c(=O)cc[nH]c1=S)c1ccccc1 (centres undefined) 42.6%
CCCOc1ccccc1/C=C(\C#N)C(=O)Nc1cccnc1 40.1%
CCOC(=O)c1oc2cccc(OC(C)=O)c2c1C 40.1%
CCOC(=O)c1oc2cc(O)cc(C)c2c1C 42.8%
O=C(NCCc1ccc(O)cc1)c1ccc(Cl)cc1 40.3%
COc1ccc(OC)c(/C(C)=N/Nc2ccc(C(=O)O)cc2)c1 42.2%
Cc1ccc2nc(NC(=O)C3CCCN(S(=O)(=O)c4cnc[nH]4)C3)sc2c1 (centres undefined) 41.6%
CCCCC(=O)Nc1cc(C(=O)NCCc2ccccc2)ccc1Cl 40.6%
COc1ccc(CNC(=O)c2ccc(-c3cnn(C)c3)c3ccoc23)cc1OC 40.2%
C/C(=N/OC(=O)c1ccc(C)cc1)c1ccc(N2C(=O)C3CCCCC3C2=O)cc1 (centres undefined) 40.9%
O=C(/C=C/c1ccc2ccccc2n1)c1cc(Cl)ccc1O 60.6%
COc1cc(OC)cc(C(=O)Nc2sc3c(c2C(N)=O)CCC3)c1 43.5%
COc1ccc(NC(=O)Nc2ccc(F)cc2F)cc1 56.6%
CCOc1ccc(NC(=O)Nc2cc(C)ccc2F)cc1 44.4%
O=C(NCCc1cccc(Cl)c1)c1ccc(Cl)c([N+](=O)[O-])c1 42.1%
COc1cccc(-c2noc(C3CCCN(C(=O)c4ccccc4OC)C3)n2)c1 (centres undefined) 45.6%
CCOC(=O)c1[nH]c(C)c(C(=O)NCCC2=CCCCC2)c1C 46.5%
Cc1nnc(SCc2ccc(Cl)c(Cl)c2)s1 48.5%
O=[N+]([O-])c1nn(-c2ccc3c(c2)OCCO3)n(O)c1=NCc1ccccc1Cl 42.6%
O=C(Nc1ccc2c(c1)OCO2)C1CC1(Cl)Cl (centres undefined) 41.8%
CCc1nc2ccc(C(=O)NC3CCC(C)CC3)cc2nc1CC (centres undefined) 42.2%
O=C(CC(=O)c1ccccc1)Nc1ccc(Cl)cc1 40.9%
O=C1C(Cl)=C(NCCc2ccccc2)C(=O)N1CCc1ccccc1 40.3%
CC1(C)CCSC(/C=C/c2ccccc2)=N1 62.6%
COc1ccc(C2CC(C)(c3ccc(OC)cc3)Nc3ccccc3N2)cc1 (centres undefined) 51.4%

Reporter increase, active:
CSCc1ccc(C(=O)NCCSc2ccc(Br)cc2)cc1 47.8%
Cc1csc2nc(CCNS(=O)(=O)c3cccs3)cn12 53%
c1cc2c(cc1CNc1ccc(N3CCOCC3)cc1)OCO2 68.8%
Cc1ccc(NC(=O)c2ccc([N+](=O)[O-])cc2)cc1S(=O)(=O)N(C)C 49.5%
Cn1c(-c2ccc(C(C)(C)C)cc2)n[nH]c1=S 50%
Clc1ccc(-c2cc3ccccc3[nH]2)cc1 81%
Cc1nnc(SCC(=O)N/N=C/c2cn(-c3ccccc3)nc2-c2ccccc2)n1-c1ccccc1 62.6%
Cc1ccccc1Nc1nc(N)nc(CN(C)c2ccccc2)n1 46.8%
O=C(NCc1ccccn1)c1cc(-c2ccc(-c3ccccc3)cc2)nc2ccccc12 45.3%
CCN1C(=O)/C(=C\N(C(C)=O)c2ccccc2)OC1=S 44.6%
CCNC(=O)O/N=C(\C)c1sc(-c2ccccc2)nc1C 62.6%
N#CC(=C1CCCC1)c1nc(-c2cc3ccccc3oc2=O)cs1 108%
COc1ccc(/C(=N/Nc2ncnc3ccccc23)C(=O)O)cc1 58.8%
CCCCn1nc2cc(C(=O)NCCc3cccs3)ccc2c1OCC 41.4%
